Measured values as given in publication PMC4729902.
Results are given in words; binding and its absence hold for the method and conditions named. Binding seen in cells or lysates may run through a third protein. Some results given as binding are weak or reduced against the parent protein; the word gives no strength. Values belong to the binder of their own block, whether it stands above or below them.

Assays:
[1] = biological target: T1, YTHDC2, endogenous in mouse testis (mouse (endogenous in testis)) (UniProt B2RR83); assay: co-IP; IP of YTHDC2 or of MEIOC from postnatal mouse testis extracts, western blot; also after benzonase treatment; binding buffer 25 mM Tris-HCl pH 7.5, 150 mM NaCl, 2 h at 4 °C
T1 sequence: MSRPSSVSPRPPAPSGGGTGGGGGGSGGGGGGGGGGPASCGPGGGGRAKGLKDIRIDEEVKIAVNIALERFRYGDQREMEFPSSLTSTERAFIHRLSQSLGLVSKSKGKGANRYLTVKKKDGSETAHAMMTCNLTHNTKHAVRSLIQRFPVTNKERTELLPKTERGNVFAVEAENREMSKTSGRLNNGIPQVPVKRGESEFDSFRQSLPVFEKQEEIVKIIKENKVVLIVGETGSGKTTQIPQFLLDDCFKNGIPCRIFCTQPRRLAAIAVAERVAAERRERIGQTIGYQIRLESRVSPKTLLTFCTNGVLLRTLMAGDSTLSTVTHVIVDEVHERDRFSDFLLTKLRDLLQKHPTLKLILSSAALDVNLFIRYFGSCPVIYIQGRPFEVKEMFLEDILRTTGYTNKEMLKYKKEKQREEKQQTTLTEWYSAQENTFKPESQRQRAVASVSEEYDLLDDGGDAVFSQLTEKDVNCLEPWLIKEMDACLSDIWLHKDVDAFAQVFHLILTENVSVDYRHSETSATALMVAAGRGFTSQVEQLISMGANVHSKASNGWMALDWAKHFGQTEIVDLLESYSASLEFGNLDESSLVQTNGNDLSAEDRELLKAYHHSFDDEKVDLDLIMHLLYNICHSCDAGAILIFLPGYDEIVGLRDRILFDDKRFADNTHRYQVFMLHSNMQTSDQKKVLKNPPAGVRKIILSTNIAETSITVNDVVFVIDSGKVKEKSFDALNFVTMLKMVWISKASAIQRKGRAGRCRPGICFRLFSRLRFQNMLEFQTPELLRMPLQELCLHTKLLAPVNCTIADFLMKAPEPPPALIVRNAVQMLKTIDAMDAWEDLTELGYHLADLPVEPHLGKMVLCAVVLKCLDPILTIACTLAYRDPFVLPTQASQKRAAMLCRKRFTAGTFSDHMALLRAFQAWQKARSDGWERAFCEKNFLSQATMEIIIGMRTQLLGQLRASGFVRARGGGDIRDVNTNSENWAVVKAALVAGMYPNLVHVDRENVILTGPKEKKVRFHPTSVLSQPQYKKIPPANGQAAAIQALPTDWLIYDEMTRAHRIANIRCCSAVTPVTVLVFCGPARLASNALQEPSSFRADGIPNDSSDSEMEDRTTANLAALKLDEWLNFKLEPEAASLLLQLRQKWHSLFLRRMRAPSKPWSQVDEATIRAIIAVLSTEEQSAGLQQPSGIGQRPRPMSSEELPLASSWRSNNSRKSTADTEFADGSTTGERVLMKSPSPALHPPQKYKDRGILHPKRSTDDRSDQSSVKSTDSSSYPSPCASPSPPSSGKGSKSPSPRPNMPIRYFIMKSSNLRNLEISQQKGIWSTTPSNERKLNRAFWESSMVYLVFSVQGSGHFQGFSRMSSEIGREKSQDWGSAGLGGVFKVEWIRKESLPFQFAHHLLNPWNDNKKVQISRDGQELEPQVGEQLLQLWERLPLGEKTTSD

[2] = biological target: T2, MEIOC (Meiosis specific with coiled-coil domain), endogenous in mouse testis (mouse (endogenous in testis)) (UniProt A2AG06); assay: as above
T2 sequence: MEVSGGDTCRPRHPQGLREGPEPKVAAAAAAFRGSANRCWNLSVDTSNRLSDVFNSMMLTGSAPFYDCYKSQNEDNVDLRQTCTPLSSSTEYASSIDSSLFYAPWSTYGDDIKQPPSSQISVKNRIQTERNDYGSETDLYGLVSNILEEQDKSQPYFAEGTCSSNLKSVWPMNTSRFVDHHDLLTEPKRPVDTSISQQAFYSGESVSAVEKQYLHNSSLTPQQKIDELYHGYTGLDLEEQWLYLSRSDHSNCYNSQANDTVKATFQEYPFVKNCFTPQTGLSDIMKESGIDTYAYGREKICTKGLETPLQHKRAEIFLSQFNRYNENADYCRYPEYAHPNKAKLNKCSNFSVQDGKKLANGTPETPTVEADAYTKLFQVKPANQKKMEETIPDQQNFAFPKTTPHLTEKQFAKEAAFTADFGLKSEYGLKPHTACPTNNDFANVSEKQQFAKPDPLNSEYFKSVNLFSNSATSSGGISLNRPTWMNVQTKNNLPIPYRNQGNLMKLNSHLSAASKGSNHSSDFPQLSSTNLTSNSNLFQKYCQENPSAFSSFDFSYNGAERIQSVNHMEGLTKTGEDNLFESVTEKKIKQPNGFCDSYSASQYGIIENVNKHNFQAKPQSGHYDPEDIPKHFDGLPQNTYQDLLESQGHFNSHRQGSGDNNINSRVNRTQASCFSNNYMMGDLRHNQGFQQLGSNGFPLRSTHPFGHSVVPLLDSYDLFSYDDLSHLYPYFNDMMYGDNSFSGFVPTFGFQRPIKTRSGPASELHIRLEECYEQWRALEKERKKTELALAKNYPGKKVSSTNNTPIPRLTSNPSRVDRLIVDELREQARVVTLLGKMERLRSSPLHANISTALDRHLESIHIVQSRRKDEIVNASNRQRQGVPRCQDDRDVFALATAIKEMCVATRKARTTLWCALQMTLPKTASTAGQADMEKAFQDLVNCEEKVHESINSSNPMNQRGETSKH

binding [1]: binds
B1: MEIOC (Meiosis specific with coiled-coil domain), endogenous in mouse testis (protein, UniProt A2AG06 1-965)
chain: T2 sequence

binding [2]: binds
B2: YTHDC2, endogenous in mouse testis (protein, UniProt B2RR83 1-1445)
chain: T1 sequence
